Data published in ChEMBL document CHEMBL4888484, “Replenishing the malaria drug discovery pipeline: Screening and hit evaluation of the MMV Hit Generation Library 1 (HGL1) against asexual blood stage Plasmodium falciparum ,using a nano luciferase reporter read-out” (2022).
In all, about 150,000 compounds went through this assay and about 540 (0.36%) showed an effect of 50% or more. The list shows a part of the results.

Each molecule was assayed on Plasmodium falciparum (assay: Primary screen in NF54 nanoGlo assay, in single point, at 2uM, 72h; a lower Z score goes with more inhibition). Settings: timepoint 72 hour.
Format: functional, Erythrocyte

Structure (SMILES)	% Inhibition	Z score
CC(NC(=O)Nc1cccc(Cl)c1)C(c1cccs1)N1CCCC1 (stereo not drawn)	-10%	1.06
COCCN(CCNC(=O)N1CCC(C)CC1)C1CC1	5%	-0.4
COc1ccc(CC(=O)Nc2c(C(=O)c3ccc(OC)c(Cl)c3)oc3ccccc23)cc1	3%	-0.35
CCCC(=O)O[C@@H](C)Cc1cccnc1	-8%	0.83
CN1CCC(N(C)C[C@H](NC(=O)Cc2ccc(Br)cc2)c2ccccc2)CC1	14%	-1.79
CCCc1c(C(=O)N2CCN(c3nc4nccc(-c5cccc(C)c5)n4n3)CC2)cnn1-c1ccccc1	-2%	0.19
CC(C)C[C@H](NC(=O)c1cnc(-c2cccnc2)nc1O)c1ncnn1C	-10%	1.27
CN(C)CCNC(=O)CCc1cc2n(n1)CCN(c1cccc(C#N)n1)C2	-21%	2.23
Nc1ncnc2cc(C(=O)N3CCOCC4(CCCC4)C3)ccc12	-7%	1.03
Cc1noc(C)c1CC(=O)N[C@H]1CC(=O)N(Cc2cccc3ccccc23)C1	-9%	1.25
COC(=O)[C@@H](Cc1cccnc1)NC(=O)[C@H]1CN(C(=O)Nc2ccccc2)CCN1S(=O)(=O)c1ccccc1	3%	-0.41
Cc1cc2c(cc1C)O[C@H](C(=O)NCC1(S(C)(=O)=O)CCCC1)C2	-12%	2.22
Cc1cnc(C(=O)N[C@@H]2CCC[C@@H]2C(=O)NCc2ccc(C(F)(F)F)cc2)cn1	-16%	2
CCCn1nc2n(c1=O)CCN(Cc1sccc1C)C2	-17%	3
CCOc1ccc2c(c1)NC(=O)C[C@H]2c1ccc2onc(C)c2c1	-15%	1.42
O=C(COc1ccccc1)N1CCC(N2C(=O)[C@@H]3CCCN3C2=O)C1 (stereo partly drawn)	6%	-0.89
Cn1cc(-c2cc3n(n2)CCC(=O)N3CC(=O)NCc2ccccc2Cl)c2ccccc21	-1%	0.22
CN(Cc1ncc[nH]1)C[C@H]1CCCCN1C(=O)OC(C)(C)C	-5%	0.57
N#CCN1CCN(C(=O)c2ccc3[nH]ccc3c2)CC1	-3%	0.6
O=C(Cn1ncc(=O)c2ccccc21)N1CCC[C@H]1c1ccc2c(c1)OCCCO2	3%	-0.49
CCOc1ccc2nc(N(C[C@H]3CCCO3)C(=O)c3c(-c4ccccc4Cl)noc3C)sc2c1	4%	-0.62

Structure (SMILES)	% Inhibition	Z score
c1ccc(-c2ncn(CCc3c[nH]cn3)c2-c2ccncc2)cc1	-7%	0.8
CCCn1ncc(C(=O)NCCS(=O)(=O)CC(C)C)c1C	1%	-0.1
COc1ccc(C(=O)n2nc(-c3ccccc3)c3ccccc32)cc1	-11%	1.46
CCN(CCN(C)C)C(=O)c1csc2nc(C)cn12	-7%	1.08
Cc1ccc2nc(NC(=O)CCc3nc4ccccc4c(=O)[nH]3)sc2c1	-3%	0.39
COc1ccc(CCNC(=O)N(Cc2cccn2C)C2CC2)cc1	9%	-1.75
CC(C)c1cc(CN(C)C(=O)c2cc(C(F)(F)F)n(C)n2)on1	3%	-0.73
COc1cccc(CNC(=O)[C@@H]2CCn3c(C(=O)c4ccccc4)ccc32)c1	-6%	0.87
CCCOCC(=O)N1C[C@@H](C)[C@@](C)(O)C1	-1%	0.15
CCc1nn(C)c(Cl)c1CN1CCC(CNC(=O)c2cccs2)CC1	1%	-0.13
CCCCCC(=O)N(Cc1ccccc1)c1c(N)n(CCOC)c(=O)[nH]c1=O	-12%	1.37
COc1ccc(Cn2nnc3cc(C(=O)NC4CCCCC4)ccc32)cc1	-12%	1.22
NC(=O)NC(=O)CNc1cccc(F)c1F	-1%	0.19
Cc1ccccc1CNC[C@H]1Cn2c(-c3ccccc3)cnc2CO1	-4%	0.58
Cc1cc(C)c(S(=O)(=O)N(C)C(=O)C2CCC(C)O2)c(C)c1 (stereo not drawn)	-4%	0.71
CC(C)c1cc(C(=O)N2CCCNC(=O)[C@@H]2C)no1	-4%	0.39
CCc1nc(-c2ccc3c(c2)CCN3C(=O)COc2cccc(C)c2)no1	14%	-1.69
COc1cccc(-c2nc3ccc(-c4cccc(C)c4)cn3c2CCC(=O)Nc2ccc(F)cc2)c1	-7%	1.3
CC(C)c1csc(CCNC(=O)N2CC[C@H](N3CCCCC3)C2)n1	-13%	1.12
COCc1ccnc(NC(=O)Nc2cnn(CC3CC3)c2)n1	-1%	0.11
O=C(Nc1ccc(Br)cc1)N1CCC(c2nnc3n2CCCC3)CC1	-9%	1.6

Structure (SMILES)	% Inhibition	Z score
CN1CCN(C(=O)C23CCC(C)(C(=O)C2=O)C3(C)C)CC1 (stereo not drawn)	-8%	1.02
CCN(CC)C(=O)C(=O)Nc1c(Cl)cccc1Cl	1%	-0.2
COc1ccc(S(=O)(=O)c2cnc(N3CCN(C(=O)c4ccco4)CC3)nc2N)cc1	0%	-0.04
COCC(=O)N1CCCC[C@@]1(C)c1noc(-c2ccc(F)cc2)n1	30%	-3.39
Cc1cc(C)n(C[C@H](C)Nc2ccccn2)n1	-6%	0.84
CCN(CC)CCN(C(=O)c1ccc2c(c1)CCCC2)c1nc2cc3c(cc2s1)OCCO3	19%	-2.37
COCCNC(=NC1CCCCC1)NCC1(c2ccccc2)CC1	9%	-1.11
CC(C)C[C@H]1CN(C(=O)c2cccn2C2CC2)CCO1	-6%	1.02
O=C1c2cccc3cccc(c23)C(=O)N1c1ccncc1	-14%	1.8
Cc1nc(NC(=O)Cc2cccc3ccccc23)oc1C	-8%	0.95
CCCCNC(=O)Cc1noc(CCc2cccc(O)c2)n1	-3%	0.41
COC(=O)c1c(C)[nH]c(-c2nc(Cc3csc(C)n3)sc2C)c1C	-2%	0.29
Cc1ccc(-c2noc(CCN3CCN(C(C)C)CC3)n2)cc1	-2%	0.3
CC(Cc1ccc(Cl)cc1Cl)NC(=O)C1CCN(C)C(=O)C1 (stereo not drawn)	-8%	1.42
CC(C)(CC1CCCCCC1)NC(=O)c1cncnc1	-6%	0.82
Cc1cc(NC(=O)N2CC3CCCCC32c2ccccc2)c[nH]c1=O (stereo not drawn)	3%	-0.36
Cc1ccc(Cn2c(N3CCOCC3)nc3cc(C(=O)NCCCOC(C)C)ccc3c2=O)cc1	-12%	2.34
Cc1cccc(C)c1CN(C)CC(C)(CO)CO	2%	-0.31
CC(=O)NCCC(=O)Nc1c(C)cc(C)cc1C	-9%	1.79
COc1ccc(NC(=O)Cn2c3cc(=O)n(CCN4CCOCC4)c(C)c3c(=O)n2-c2nc3ccccc3s2)cc1	33%	-3.71
CC(C)c1cc(C(=O)NC2Cc3ccccc3C2)n[nH]1	28%	-3.83

Structure (SMILES)	% Inhibition	Z score
Cc1ccc(NC(=O)Cn2nc(N3CCC[C@H](C)C3)c3ccccc3c2=O)cc1	-6%	0.95
CCc1nncn1[C@H]1CCN(S(=O)(=O)c2cc(F)ccc2OC)C1	-11%	1.85
O=C(N[C@H]1CCOC[C@H]1C1CCOCC1)c1c[nH]c(=O)c(Cl)c1	1%	-0.13
CCCc1nnsc1C(=O)N1CC(Cn2cncn2)C1	-17%	2.18
CO[C@@H](CNc1cc(C#N)ccn1)C(C)(C)C	-18%	1.67
Cc1nccc(O[C@H]2CCCN(C(=O)c3cc(=O)[nH]c(=O)[nH]3)C2)n1	11%	-1.56
CCCCc1cc(NS(=O)(=O)c2cc(C)oc2C)[nH]n1	0%	-0.01
O=C(NCC1CC1)c1ccc2c(c1)C(=O)N(C[C@H]1CCCO1)C2=O	-6%	1.07
CN(C)c1ccc(CN2Cc3nc[nH]c3C[C@H]2c2nc(-c3ccc(Cl)cc3)no2)cc1	-7%	0.94
Nc1ncc(Cl)cc1S(=O)(=O)N1CCNC(=O)CC1	-10%	1.17
O=S(=O)(NCc1nnc2c(C(F)(F)F)cccn12)C1CC1	18%	-2.23
CC(C)c1nc(CN2CC[C@@]3(C2)NC(=O)N(C(C)C)C3=O)cs1	7%	-0.75
Fc1cnc(-c2ccc(C3CCCC3)cc2)nc1N1CCOCC1	-10%	1.93
CCCN(CC(=O)O)C(=O)c1cc(C)cc(F)c1	-11%	1.29
O=C(NCCOc1ccccc1F)c1cc(-c2ccc(O)cc2)n[nH]1	3%	-0.59
O=C(c1cccs1)N(c1ccc(Cl)c(Cl)c1)c1nc2ccccc2s1	0%	0.05
O=c1c(NCCN2CCCC2)nc2ccncc2n1Cc1ccccc1	-8%	0.75
CN(CC1CCC1)C(=O)NC[C@@H](c1ccco1)N1CCCC1	-3%	0.64
CC(C)CN(CC(C)C)S(=O)(=O)c1ccc(Br)cc1	-10%	1.28
C[C@H](NC(=O)N1CCOCC1)c1nc(-c2ccccn2)no1	-10%	1.49
Cc1ccccc1C(C)(C)CNC(=O)CCS(=O)(=O)N(C)C	-14%	1.75
